Laboratory results as given in the supplement of paper PMC8728848.
The other results are listed elsewhere or left out.

Assays:
Experiment in all cases: glycan array binding signal (z-score within array); higher = stronger binding
Conditions in all cases: glycan notation: IUPAC condensed, linker removed
GalNAc(b1-4)GlcNAc = target: GalNAc(b1-4)GlcNAc
In short: (§1)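 Glycan array binding is given as a within-array Z-score, which can be read as non-binding when negative. The arrays, 3228 of them, came from the Consortium for Functional Glycomics database and were retained only where the protein sequence was available. Z-scores were averaged across arrays of the same protein sequence at different concentrations or buffers and across linkers.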

[1] = target: GalNAc(b1-4)GlcNAc(b1-2)Man
In short: as §1

[2] = target: GalNAc(b1-4)GlcNAc(b1-2)Man(a1-3)[GalNAc(b1-4)GlcNAc(b1-2)Man(a1-6)]Man(b1-4)GlcNAc(b1-4)GlcNAc
In short: as §1

[3] = target: GalNAc(b1-4)GlcNAc(b1-3)GalNAc(b1-4)GlcNAc
In short: as §1

GalNAc(b1-4)GlcNAc6S = target: GalNAc(b1-4)GlcNAc6S
In short: as §1

GalNAc(b1-6)GalNAc = target: GalNAc(b1-6)GalNAc
In short: as §1

GalNAc3S(b1-4)GlcNAc = target: GalNAc3S(b1-4)GlcNAc
In short: as §1

GalNAc3S(b1-4)GlcNAc3S = target: GalNAc3S(b1-4)GlcNAc3S
In short: as §1

[4] = target: GalNAc3S(b1-4)[Fuc(a1-3)]GlcNAc
In short: as §1

GalNAc4S6S(b1-4)GlcNAc = target: GalNAc4S6S(b1-4)GlcNAc
In short: as §1

GalNAc6S(b1-4)GlcNAc = target: GalNAc6S(b1-4)GlcNAc
In short: as §1

Glc(a1-4)Glc = target: Glc(a1-4)Glc
In short: as §1

[5] = target: Glc(a1-4)Glc(a1-4)Glc(a1-4)Glc
In short: as §1

Glc(a1-6)Glc(a1-6)Glc = target: Glc(a1-6)Glc(a1-6)Glc
In short: as §1

[6] = target: Glc(a1-6)Glc(a1-6)Glc(a1-6)Glc
In short: as §1

Glc(b1-4)Glc = target: Glc(b1-4)Glc
In short: as §1

Glc(b1-6)Glc = target: Glc(b1-6)Glc
In short: as §1

GlcA(b1-3)Gal = target: GlcA(b1-3)Gal
In short: as §1

GlcA(b1-3)GlcNAc = target: GlcA(b1-3)GlcNAc
In short: as §1

GlcA(b1-6)Gal = target: GlcA(b1-6)Gal
In short: as §1

[7] = target: GlcA3S(b1-3)Gal(b1-4)GlcNAc(b1-2)Man
In short: as §1

[8] = target: GlcA3S(b1-3)Gal(b1-4)GlcNAc(b1-3)Gal(b1-4)Glc
In short: as §1

[9] = target: GlcNAc(a1-3)Gal(b1-4)GlcNAc
In short: as §1

[10] = target: GlcNAc(a1-4)Gal(b1-3)GlcNAc
In short: as §1

[11] = target: GlcNAc(a1-4)Gal(b1-4)GalNAc
In short: as §1

[12] = target: GlcNAc(a1-4)Gal(b1-4)GlcNAc
In short: as §1

[13] = target: GlcNAc(a1-4)Gal(b1-4)GlcNAc(b1-3)Gal(b1-4)Glc
In short: as §1

[14] = target: GlcNAc(a1-4)Gal(b1-4)GlcNAc(b1-3)Gal(b1-4)GlcNAc
In short: as §1

[15] = target: GlcNAc(a1-4)Gal(b1-4)GlcNAc(b1-3)Gal(b1-4)GlcNAc(b1-3)Gal(b1-4)GlcNAc
In short: as §1

[16] = target: GlcNAc(a1-4)Gal(b1-4)GlcNAc(b1-3)Gal(b1-4)[Fuc(a1-3)]GlcNAc(b1-3)Gal(b1-4)[Fuc(a1-3)]GlcNAc
In short: as §1

B1: CC1G-10077 (Coprinopsis cinerea), A8NDT7 (protein)
chain: MALNEGVYWIRNSRFTNKVLDLDAANVAKGTSILDFNEHGTFNENHNQLWIVERFQSRDTYLIRSVHSNLVLDLSQGLSANGTPILCWTQHGGTNQQWRIEWVKDDNKTPLYRIVSVATGTAISHNEDDSSAYTVAWSVDDGPKQLWSFDPFVTPLLYRLRVKSTSRVLDLAAASADNGTLALAWEQHTAITKRNQLWWLPYRSGAEEYTIQCLETSTVADLSGGNSGNGTPIYGWQSHGGRNQQWKFEPTSDSGDYYHIKNVEGGSVMDAYMNDSQKRVGGWSNNGGDNQKWLLDPLPSPGPGWVLIQNGGTGKFLCSTPSGDIGTADGPETVYDYSVQWRFIQREYTGVYHVVNRATGAYLRQIGTSMPSIGLAEENDDELKDWWMLETYDNSEIGLASIISRWTGNVLDHYGGVSVQALDNNTENSYRSWAIIPARDWLTSFSLVNGQGGLCLAAQYAREETRLSTTANVNDFHAQWVFRKPSGSSGYTIQNKYNNHYVGGTSARWELVVCCNKYFGIRNTSTQKYLAIEDGQVTFQDQDMTDRKQCWELCSGRATDTSGNDYDLIYMDDDLLEVMIPWVGDKQGDLKHYIEKRATKKPPKDKGGWQLPAAGLIKKPKFNDIRQLLQELIEQWEWDVVNEEREQIQTLVSIDEAEARRLLGRRPHPDIVAAYQRSRSSTLFRIDRQGYFNIAGDRYVNIQGQYGDDSYFHIALPVGVRFGREQIRRFLRDSLDRSTSVTITPTTCKPPSGGPDYNRDPDSDGDNSWIKWTIAVVGTSAIKHSEL
- glycan array binding signal (z-score) (GalNAc(b1-4)GlcNAc): 3.09
- glycan array binding signal (z-score) [1]: 1.76
- glycan array binding signal (z-score) [2]: 1.83
- glycan array binding signal (z-score) [3]: 4.2
- glycan array binding signal (z-score) (GalNAc(b1-4)GlcNAc6S): 4.35
- glycan array binding signal (z-score) (GalNAc(b1-6)GalNAc): -0.509
- glycan array binding signal (z-score) (GalNAc3S(b1-4)GlcNAc): -0.462
- glycan array binding signal (z-score) (GalNAc3S(b1-4)GlcNAc3S): -0.355
- glycan array binding signal (z-score) [4]: -0.43
- glycan array binding signal (z-score) (GalNAc4S6S(b1-4)GlcNAc): -0.346
- glycan array binding signal (z-score) (GalNAc6S(b1-4)GlcNAc): 2.21
- glycan array binding signal (z-score) (Glc(a1-4)Glc): -0.482
- glycan array binding signal (z-score) [5]: -0.448
- glycan array binding signal (z-score) (Glc(a1-6)Glc(a1-6)Glc): -0.497
- glycan array binding signal (z-score) [6]: -0.522
- glycan array binding signal (z-score) (Glc(b1-4)Glc): -0.507
- glycan array binding signal (z-score) (Glc(b1-6)Glc): -0.505
- glycan array binding signal (z-score) (GlcA(b1-3)Gal): -0.418
- glycan array binding signal (z-score) (GlcA(b1-3)GlcNAc): -0.467
- glycan array binding signal (z-score) (GlcA(b1-6)Gal): -0.357
- glycan array binding signal (z-score) [7]: -0.411
- glycan array binding signal (z-score) [8]: -0.495
- glycan array binding signal (z-score) [9]: -0.489
- glycan array binding signal (z-score) [10]: -0.493
- glycan array binding signal (z-score) [11]: -0.544
- glycan array binding signal (z-score) [12]: -0.436
- glycan array binding signal (z-score) [13]: -0.478
- glycan array binding signal (z-score) [14]: -0.431
- glycan array binding signal (z-score) [15]: -0.384
- glycan array binding signal (z-score) [16]: -0.441
